Some of the results follow. Values were computed here from the reads of four pooled replicates and scatter widely.

For this experiment, the target named is T1, Pho4 (S. cerevisiae) (UniProt P07270).
T1 sequence: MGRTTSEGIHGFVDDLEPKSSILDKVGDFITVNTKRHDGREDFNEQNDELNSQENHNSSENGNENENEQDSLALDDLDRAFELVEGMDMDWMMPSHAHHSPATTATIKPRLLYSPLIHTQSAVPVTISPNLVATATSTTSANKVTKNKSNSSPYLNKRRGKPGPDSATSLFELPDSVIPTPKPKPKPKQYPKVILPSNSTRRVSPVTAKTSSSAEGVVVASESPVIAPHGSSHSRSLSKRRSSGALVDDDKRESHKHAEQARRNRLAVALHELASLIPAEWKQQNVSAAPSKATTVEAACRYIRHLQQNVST
The experiment in a line: relative binding free energy (BET-seq); higher = weaker binding. The conditions noted are these: reference: library average.
Consider GCGCGCACGTGGGGCT, for which the “relative binding free energy” value was -0.17 kcal/mol.

With TTGGGCACGTGACGAT, the “relative binding free energy” value came to 0.06 kcal/mol.

For the sequence TACTGCACGTGGTTAT, the “relative binding free energy” value is -0.05 kcal/mol.

For the sequence GGGTACACGTGGGTCA, the “relative binding free energy” value is -0.14 kcal/mol.

For TAACGCACGTGGTTAG, the “relative binding free energy” value is -0.1 kcal/mol.

In the case of ACGGACACGTGCGGGT, the “relative binding free energy” value turned out to be 0.08 kcal/mol.

As to GTTAGCACGTGCATTA, the “relative binding free energy” value turned out to be 0.1 kcal/mol.

Turning to TGACGCACGTGGGGCT, the “relative binding free energy” value is -0.15 kcal/mol.

Take TTTAGCACGTGGGTAG: the “relative binding free energy” value was -0.16 kcal/mol.

With GTAGTCACGTGAAGTT, the “relative binding free energy” value is 0.34 kcal/mol.

For GCGGACACGTGTGGAT, the “relative binding free energy” value came to 0.32 kcal/mol.

Take GTATTCACGTGCGGAT: the “relative binding free energy” value was determined as 0.21 kcal/mol.

Consider TACGTCACGTGTGGGG, for which the “relative binding free energy” value worked out at 0.15 kcal/mol.

Turning to TTCTGCACGTGGGTAG, the “relative binding free energy” value was -0.12 kcal/mol.

In the case of GGGGTCACGTGGTATG, the “relative binding free energy” value is 0.05 kcal/mol.

For the sequence CGTTGCACGTGTGTCG, the “relative binding free energy” value is -0.03 kcal/mol.

As for GGTGTCACGTGTTGCA, the “relative binding free energy” value came out at 0 kcal/mol.

As to TTGGTCACGTGGGACC, the “relative binding free energy” value was 0.06 kcal/mol.

In the case of GTTCACACGTGGGATA, the “relative binding free energy” value was 0.03 kcal/mol.

For the sequence GCGAGCACGTGAGTGG, the “relative binding free energy” value came out at 0.19 kcal/mol.

Regarding GCCGTCACGTGGGTGG, the “relative binding free energy” value was -0.14 kcal/mol.

GTCGTCACGTGTTCTT: the “relative binding free energy” value is 0.26 kcal/mol.

Turning to GTCTGCACGTGGTCGT, the “relative binding free energy” value is 0.06 kcal/mol.

On to AGGTACACGTGATGCT, for which the “relative binding free energy” value came to 0.21 kcal/mol.

Take TCAGTCACGTGTTGTT: the “relative binding free energy” value is -0.11 kcal/mol.

In the case of CGGCACACGTGGTTTG, the “relative binding free energy” value is 0.05 kcal/mol.

For GGCGGCACGTGTGAGG, the “relative binding free energy” value is 0.01 kcal/mol.

With GCATTCACGTGGTTAG, the “relative binding free energy” value stood at 0.29 kcal/mol.

Regarding ATGGTCACGTGTTACT, the “relative binding free energy” value was 0.11 kcal/mol.

For AGGTTCACGTGTATTA, the “relative binding free energy” value was determined as 0.26 kcal/mol.

For the sequence GTTGGCACGTGTAATG, the “relative binding free energy” value is 0.1 kcal/mol.

As for ATAGACACGTGCGGGA, the “relative binding free energy” value stood at 0.02 kcal/mol.

Take GGGATCACGTGGGGAG: the “relative binding free energy” value was found to be 0.03 kcal/mol.

Consider GGCAGCACGTGGCGGA, for which the “relative binding free energy” value is -0.17 kcal/mol.

GTGAGCACGTGGTTAA: the “relative binding free energy” value was -0.01 kcal/mol.

For AACATCACGTGTGGGT, the “relative binding free energy” value is 0.25 kcal/mol.

Consider GTTATCACGTGATAGT, for which the “relative binding free energy” value turned out to be 0.31 kcal/mol.

GGAGTCACGTGATGGG: the “relative binding free energy” value came to 0.28 kcal/mol.

Turning to TCAGTCACGTGGGGAA, the “relative binding free energy” value is -0.05 kcal/mol.

On to GTAATCACGTGAACGG, for which the “relative binding free energy” value turned out to be 0.31 kcal/mol.

With TATTCCACGTGGGGAT, the “relative binding free energy” value was determined as 0.01 kcal/mol.

For the sequence TGAGTCACGTGGTGGA, the “relative binding free energy” value came out at 0.1 kcal/mol.

Take TGTTCCACGTGGAGGT: the “relative binding free energy” value was -0.04 kcal/mol.

As for GTAAGCACGTGGGCTT, the “relative binding free energy” value was -0.12 kcal/mol.

With GTAGGCACGTGAAGTG, the “relative binding free energy” value is 0.19 kcal/mol.

As for ATGTGCACGTGGTCAG, the “relative binding free energy” value is -0.19 kcal/mol.

Take ATTGCCACGTGGTGGC: the “relative binding free energy” value was -0.15 kcal/mol.

As to CAGTTCACGTGGAGAT, the “relative binding free energy” value turned out to be 0.25 kcal/mol.

On to TATCACACGTGTGTGG, for which the “relative binding free energy” value was determined as 0.16 kcal/mol.

For GGGTGCACGTGAGGTT, the “relative binding free energy” value was determined as 0.29 kcal/mol.

For the sequence GTTGTCACGTGCGTCG, the “relative binding free energy” value was -0.06 kcal/mol.

Consider GTTCTCACGTGACGGG, for which the “relative binding free energy” value was 0.45 kcal/mol.

For the sequence AGCATCACGTGGGTAG, the “relative binding free energy” value amounted to 0.02 kcal/mol.

In the case of TCAAACACGTGGGAGG, the “relative binding free energy” value worked out at 0 kcal/mol.

For the sequence AAGATCACGTGGGGGT, the “relative binding free energy” value was 0.07 kcal/mol.

With TGGGTCACGTGTACAT, the “relative binding free energy” value is 0.1 kcal/mol.

For AATGACACGTGGGTCA, the “relative binding free energy” value was -0.07 kcal/mol.

As for TTAAGCACGTGTGAAG, the “relative binding free energy” value was found to be 0.16 kcal/mol.

On to TGCGCCACGTGTGTTG, for which the “relative binding free energy” value is -0.05 kcal/mol.

For CAAGGCACGTGTTCGT, the “relative binding free energy” value was -0.03 kcal/mol.

On to TTAAACACGTGGTGTA, for which the “relative binding free energy” value was -0.19 kcal/mol.

TGGGTCACGTGTACGG: the “relative binding free energy” value came to 0.11 kcal/mol.

Turning to ATACACACGTGGTGGG, the “relative binding free energy” value was -0.04 kcal/mol.

With GGTGTCACGTGCTTGC, the “relative binding free energy” value came out at 0.06 kcal/mol.

In the case of CGATACACGTGGGGAT, the “relative binding free energy” value was -0.04 kcal/mol.

For TAGGCCACGTGAGGGA, the “relative binding free energy” value is -0.02 kcal/mol.

As for GTATTCACGTGTTAAA, the “relative binding free energy” value worked out at 0.33 kcal/mol.

As for GGACGCACGTGGTGTG, the “relative binding free energy” value was -0.04 kcal/mol.

For the sequence CTAGTCACGTGGGTAT, the “relative binding free energy” value stood at 0.08 kcal/mol.

Consider AGTGGCACGTGGAGAG, for which the “relative binding free energy” value was -0.13 kcal/mol.

Turning to CGGGGCACGTGTCGGA, the “relative binding free energy” value is -0.05 kcal/mol.

In the case of AAGACCACGTGTGGGG, the “relative binding free energy” value is 0.05 kcal/mol.

With AGGGGCACGTGAAAAA, the “relative binding free energy” value worked out at 0.26 kcal/mol.

In the case of GTTTTCACGTGGATCT, the “relative binding free energy” value was found to be 0.46 kcal/mol.

On to TATTACACGTGTCTGT, for which the “relative binding free energy” value was -0.02 kcal/mol.

For GGGGGCACGTGTACGA, the “relative binding free energy” value was found to be 0.01 kcal/mol.

Turning to TTATGCACGTGGAAAG, the “relative binding free energy” value worked out at 0.09 kcal/mol.

As to TGTGTCACGTGCGCCT, the “relative binding free energy” value is -0.09 kcal/mol.

For the sequence TCGTTCACGTGGACGG, the “relative binding free energy” value came out at 0.33 kcal/mol.

Take TTAGGCACGTGAAGTT: the “relative binding free energy” value stood at 0.26 kcal/mol.

On to GGTAGCACGTGGTGCG, for which the “relative binding free energy” value was -0.06 kcal/mol.

Take TCGTGCACGTGTCATT: the “relative binding free energy” value worked out at 0.14 kcal/mol.

As for GTAGCCACGTGCGGAG, the “relative binding free energy” value came out at 0.11 kcal/mol.

Consider TCTAGCACGTGGGCAG, for which the “relative binding free energy” value is -0.18 kcal/mol.

In the case of GTTAGCACGTGTGGCT, the “relative binding free energy” value is 0.11 kcal/mol.

In the case of ATTGGCACGTGCTGAT, the “relative binding free energy” value is -0.24 kcal/mol.

Take TTAGGCACGTGCATTT: the “relative binding free energy” value was -0.21 kcal/mol.

For the sequence GTAGTCACGTGGGGTT, the “relative binding free energy” value came out at 0 kcal/mol.

Take TCGGGCACGTGGGCTT: the “relative binding free energy” value is -0.22 kcal/mol.

Consider GCGGCCACGTGGTGGA, for which the “relative binding free energy” value was -0.06 kcal/mol.

In the case of TATATCACGTGGAGAG, the “relative binding free energy” value turned out to be 0.19 kcal/mol.

On to TGTGTCACGTGAGAGC, for which the “relative binding free energy” value amounted to 0.23 kcal/mol.

For GTTAGCACGTGTGACG, the “relative binding free energy” value stood at 0.03 kcal/mol.

Consider TTTTGCACGTGCATTA, for which the “relative binding free energy” value was found to be 0.06 kcal/mol.

In the case of ATAGGCACGTGCGTAT, the “relative binding free energy” value was -0.23 kcal/mol.

As to GTTATCACGTGTTGTC, the “relative binding free energy” value was determined as 0.19 kcal/mol.

With TGTCACACGTGTTTAA, the “relative binding free energy” value came to 0.18 kcal/mol.

For ATAGTCACGTGCCGGG, the “relative binding free energy” value was 0.08 kcal/mol.

Consider AGGAGCACGTGGTTGC, for which the “relative binding free energy” value is -0.14 kcal/mol.

For TTTGACACGTGGGGAT, the “relative binding free energy” value is -0.19 kcal/mol.

Consider TGGTACACGTGTGCAT, for which the “relative binding free energy” value is -0.07 kcal/mol.

For the sequence AGGTTCACGTGTTTTG, the “relative binding free energy” value was found to be 0.23 kcal/mol.

In the case of GTGGTCACGTGGAATA, the “relative binding free energy” value amounted to 0.34 kcal/mol.

As to TTGTACACGTGTGGAG, the “relative binding free energy” value amounted to 0.16 kcal/mol.

In the case of TCGTTCACGTGTGATT, the “relative binding free energy” value worked out at 0.27 kcal/mol.

TGAGGCACGTGTGGGA: the “relative binding free energy” value was -0.02 kcal/mol.

Take TGGGACACGTGTGTGC: the “relative binding free energy” value was found to be 0.03 kcal/mol.

With TTCGTCACGTGCATTG, the “relative binding free energy” value was 0.1 kcal/mol.

Consider TTGTACACGTGGCGCT, for which the “relative binding free energy” value is -0.04 kcal/mol.

With TTTTACACGTGGCGTG, the “relative binding free energy” value came out at 0.11 kcal/mol.

TGCGGCACGTGATGAG: the “relative binding free energy” value amounted to 0.03 kcal/mol.

Consider CGGGGCACGTGGAAAG, for which the “relative binding free energy” value is -0.04 kcal/mol.

For the sequence TGATACACGTGACGTG, the “relative binding free energy” value is 0.12 kcal/mol.

As for GCGATCACGTGGGTGG, the “relative binding free energy” value is 0.11 kcal/mol.

For the sequence TCGGGCACGTGGTGCG, the “relative binding free energy” value was -0.35 kcal/mol.

(Values after the BET-seq Pho4 binding data (Le et al. 2018).)
